From PMC4336329 (PLoS ONE, 2015)
The whole screen tested about 310,000 compounds, of which about 14,000 (4.5%) showed an effect of 50% or more. The effect is printed as a negative number. The list shows a part of the results.

Target: human ether-à-go-go-related gene (hERG) potassium channel (human, UniProt Q12809)
Test: primary screen, population patch clamp on CHO cells stably expressing hERG
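Note: peak tail current of the secondary pulse compared with the same well before compound.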

Chain of human ether-à-go-go-related gene (hERG) potassium channel (Q12809 whole entry, looked up): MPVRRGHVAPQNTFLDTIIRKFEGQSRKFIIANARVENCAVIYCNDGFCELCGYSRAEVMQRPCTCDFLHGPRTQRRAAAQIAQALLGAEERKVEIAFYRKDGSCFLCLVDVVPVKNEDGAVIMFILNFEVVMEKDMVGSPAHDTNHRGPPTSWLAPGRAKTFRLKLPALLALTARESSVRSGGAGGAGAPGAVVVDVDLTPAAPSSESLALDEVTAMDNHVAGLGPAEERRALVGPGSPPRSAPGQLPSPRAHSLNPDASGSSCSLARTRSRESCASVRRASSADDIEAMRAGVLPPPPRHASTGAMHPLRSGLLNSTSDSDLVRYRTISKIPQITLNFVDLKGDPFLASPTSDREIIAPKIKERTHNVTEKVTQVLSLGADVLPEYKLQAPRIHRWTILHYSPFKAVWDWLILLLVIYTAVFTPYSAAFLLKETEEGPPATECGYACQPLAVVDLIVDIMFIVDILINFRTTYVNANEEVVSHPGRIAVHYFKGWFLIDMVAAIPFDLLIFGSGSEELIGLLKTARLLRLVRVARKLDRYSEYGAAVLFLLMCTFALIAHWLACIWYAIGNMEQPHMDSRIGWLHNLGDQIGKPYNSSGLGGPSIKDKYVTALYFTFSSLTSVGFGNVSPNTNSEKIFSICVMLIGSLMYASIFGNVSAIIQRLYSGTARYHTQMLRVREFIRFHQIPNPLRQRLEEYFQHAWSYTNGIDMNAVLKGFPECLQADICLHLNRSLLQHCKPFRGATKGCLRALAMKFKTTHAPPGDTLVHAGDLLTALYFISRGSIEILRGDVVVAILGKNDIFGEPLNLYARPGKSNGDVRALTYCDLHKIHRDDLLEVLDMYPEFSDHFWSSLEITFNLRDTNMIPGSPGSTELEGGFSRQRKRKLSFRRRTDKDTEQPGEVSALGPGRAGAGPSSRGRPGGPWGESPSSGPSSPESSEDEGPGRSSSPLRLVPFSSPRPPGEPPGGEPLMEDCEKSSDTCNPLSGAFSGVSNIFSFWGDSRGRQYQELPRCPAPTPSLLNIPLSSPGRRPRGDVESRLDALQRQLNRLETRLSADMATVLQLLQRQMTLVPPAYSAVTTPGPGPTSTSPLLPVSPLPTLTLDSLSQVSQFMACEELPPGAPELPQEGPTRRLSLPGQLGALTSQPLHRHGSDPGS

Row | SMILES | hERG current change (%, negative = inhibition) at 10uM
1 | CCc1ccc2nc(N3C(=O)c4oc5ccccc5c(=O)c4C3c3ccc(OC)c(OC)c3)sc2c1 (stereo not drawn) | 18%
2 | Cc1ccc(NC(=O)C(NS(=O)(=O)c2cccc3nsnc23)C(C)C)nc1 (stereo not drawn) | 0.927%
3 | CC(C(=O)OCC(=O)c1cccc([N+](=O)[O-])c1)N1C(=O)C2C3CCC(C3)C2C1=O (stereo not drawn) | 2.55%
4 | CCOC(=O)c1c(C)oc2c1C(=O)c1ccccc1C2=O | -0.394%
5 | N#Cc1ccccc1NC(=O)Nc1ccccc1 | 17.4%
6 | COc1ccc(-c2nnc(SCc3nc4ccccc4c(=O)[nH]3)o2)cc1 | -17.8%
7 | Nc1nc(Nc2ccccc2)nc(N2CCOCC2)c1[N+](=O)[O-] | -21%
8 | COc1ccc(NC(=O)CN(C2CCCCC2)S(C)(=O)=O)cc1Cl | -18.4%
9 | CCOC(=O)C1(Cc2ccccc2C)CCCN(C(=O)CCn2nccc2C)C1 (stereo not drawn) | -16.5%
10 | O=S(=O)(Nc1cc(Cl)ccc1-n1cncn1)c1ccccc1Cl | -14.1%
11 | CC(=O)Nc1ccc(S(=O)(=O)N[C@@H](C)C(=O)OCC(=O)NC2CCCC2)cc1 | -12%
12 | CC(=O)CC(c1ccccc1[N+](=O)[O-])c1c(O)c2ccccc2oc1=O (stereo not drawn) | 6.62%
13 | CCc1nnc(NC(=O)CN2CCN(C(=O)c3ccccc3)CC2)s1 | 14.7%
14 | O=Cc1ccc(-c2ccccc2OC(F)(F)F)o1 | 1.6%
15 | O=c1[nH]c(C2CCCN(S(=O)(=O)c3ccccc3F)C2)nc2c1nnn2Cc1ccccc1Cl (stereo not drawn) | 13.8%
16 | CN(Cc1ccc(Cl)cc1)C(=O)c1ccc(S(=O)(=O)NCc2ccco2)cc1 | -51.8%
17 | CC1(C)C(C=C(Cl)Cl)C1C(=O)Nc1ccc(S(=O)(=O)Nc2ncccn2)cc1 (stereo not drawn) | 16.1%
18 | O=C1c2ccccc2C(=O)N1CCCCSc1nnc2c(Cl)cc(Cl)cn12 | -80.2%
19 | O=C1CN(C(=O)COC(=O)/C=C/c2ccco2)c2ccccc2N1 | 6.56%
20 | Oc1ccc(/C=N/Nc2ccnc3cc(Cl)ccc23)c(O)c1 | 13.7%
21 | O=C(Nc1nnc(SCC(=O)N2CCOCC2)s1)c1ccccc1 | 0.207%
22 | C#CCn1c(=O)cc(C)c2ccccc21 | 8.17%

Row | SMILES | hERG current change (%, negative = inhibition) at 10uM
23 | CC(C)(C)NC(=O)COc1ccc2oc3c(c2c1)CCCC3 | -3.4%
24 | CC(=O)c1cnc2nc(SCc3ccccc3C)nn2c1C | 8.79%
25 | CCNC(=S)N1CCN(c2cccc(C(F)(F)F)c2)CC1 | -13.5%
26 | CC(Oc1ccc2c(c1)oc(=O)c1ccccc12)C(=O)NCC1CCC(C(=O)O)CC1 (stereo not drawn) | 17.7%
27 | CNS(=O)(=O)c1ccc2ccccc2c1 | 6.76%
28 | COc1ccc(S(=O)(=O)N2CCC(C(=O)NCCC3=CCCCC3)CC2)cc1OC | -23.5%
29 | CC(C)(C)NC(=O)C(=O)NN=C1CCCCCC1 | -3.89%
30 | CCOc1ccc(N=C2NC(=O)SC2CC(=O)OC)cc1 (stereo not drawn) | -1.2%
31 | COC(=O)CSc1snnc1-c1ccc(F)cc1 | 1.52%
32 | O.O=C([O-])c1ccn2c(C(=O)c3ccccc3)c(-c3ccccc3)cc2c1 | 12.8%
33 | O=C(N1CCCCCC1)N1CCN(S(=O)(=O)c2cccc([N+](=O)[O-])c2)CC1 | -33.1%
34 | CN1CCc2c(sc(NC(=O)c3ccc(S(=O)(=O)N4CCCCCC4)cc3)c2C(N)=O)C1 | 5.51%
35 | COC(=O)c1ccc(Cn2cnc3c(cnn3-c3ccc(Cl)cc3)c2=O)o1 | 17.7%
36 | Cc1nc2nc(N)nn2c(C)c1C/C=C/c1ccccc1 | -3.29%
37 | O=C(CCNS(=O)(=O)c1ccc(Br)s1)NCc1ccc2c(c1)OCO2 | -36.6%
38 | COC(=O)C1=C(C)N(CC2CC2)C(=NCc2cc(OC)c(OC)c(OC)c2)N[C@H]1c1ccccc1 | -17.5%
39 | CN(C1=C(NC(=O)c2ccc(Cl)cc2)C(=O)c2ccccc2C1=O)c1ccccc1 | -5.62%
40 | N#CCSc1nc2[nH]ncc2c(=O)n1-c1ccccc1Br | -1.9%
41 | CN(C)CCCn1c2c(c(SCC(=O)Nc3ccc4c(c3)OCO4)nc1=O)CCCC2 | -39.7%
42 | O=C(Oc1ccccc1N1CCOCC1)c1ccccc1 | 12.3%
43 | COc1ccccc1CNC(=O)c1n[nH]c2ccccc12 | 8.97%
44 | COc1cccc(CNC(=O)CN2C(=O)CSc3ccc(S(=O)(=O)N4CCOCC4)cc32)c1 | -14.6%

Row | SMILES | hERG current change (%, negative = inhibition) at 10uM
45 | CO/N=C\c1cc(C(=O)c2ccc(Cl)cc2Cl)cn1C | -11.9%
46 | CCc1ccc(OCC(=O)N2CCN(c3ccccn3)CC2)c(Br)c1 | -40.8%
47 | O=C(CN1C(=O)CCSc2ccccc21)Nc1ccc2c(c1)OCO2 | -13.6%
48 | Cc1cc(Nc2ccccc2)nn1C(=O)c1ccc(Cl)cc1 | 17.8%
49 | CCOC(=O)C1CCC(CNCc2ccc(Cl)cc2)CC1 (stereo not drawn) | -69.2%
50 | CS(=O)(=O)c1ncc(Cl)c(C(=O)Nc2ccc(N3CCOCC3)cc2)n1 | 4.23%
51 | CCN(CC)CC(=O)Nc1sc(C)c(C)c1C(=O)c1ccc(C)cc1 | -0.341%
52 | CCOc1ccc(N2CC(O)(c3cccs3)[N+]3=C2CCCC3)cc1.[Br-] (stereo not drawn) | -69.7%
53 | CCCOc1ccc(C(=O)NCCC(=O)NCCCC(=O)O)cc1 | 11.8%
54 | CCC1=C(OC(=O)N(CC)CC)N2C(=O)OC(=NCc3ccccc3)[C@]2(C)[C@H]2C1=CC[C@H]1C(=O)N(CC)C(=O)[C@H]12 | -2.64%
55 | COc1ccc(-c2noc(CNC(=O)c3ccoc3C)n2)cc1 | -12.3%
56 | CC(C)(C)N/C=C(\C#N)S(=O)(=O)c1ccc(Br)cc1 | -10.5%
57 | Cc1cc(C)c(C)c(S(=O)(=O)Nc2ccc(OCC(=O)O)cc2)c1C | 12.8%
58 | CC(C)Oc1ccc(C(=O)NC(Cc2c[nH]c3ccccc23)C(=O)NN)cc1 (stereo not drawn) | 4.25%
59 | CC(Oc1ccccc1)C(=O)N=Nc1c(O)[nH]c2ccc([N+](=O)[O-])cc12 (stereo not drawn) | 8.25%
60 | COc1ccccc1N(CC(=O)NC(C)C)S(=O)(=O)c1cccs1 | 4.96%
61 | CCN1CC2CCCC3(C1)C(=O)NC1(CCCCC1)N=C23 (stereo not drawn) | 5.63%
62 | CCOC(=O)c1ccc(Oc2nc(NC(C)(C)C)nc(N(C)C)n2)cc1 | 1.23%
63 | CCn1c(=S)sc2c(=O)n(CC(=O)Nc3ccc(C(C)=O)cc3)c(C)nc21 | 5.78%
64 | CCn1cc(/C=N\NC(=O)c2ccc(F)cc2)cn1 | 5.37%
65 | CC(=O)N1CSCC1C(=O)O (stereo not drawn) | 20.6%
66 | CC(C)(O)[C@H](O)COc1c2ccoc2cc2oc(=O)ccc12 | 16.1%

Row | SMILES | hERG current change (%, negative = inhibition) at 10uM
67 | O=C(Nc1cccnc1)c1sc(Nc2ccccc2F)nc1-c1ccccc1 | 20.5%
68 | O=C1C2CCCN2C(c2ccccc2)N1c1ccc(Cl)cc1 (stereo not drawn) | 11.8%
69 | Cc1ccc(-c2noc(/C=C/c3ccccc3)n2)cc1 | 7.16%
70 | O=C(Nc1c[nH]c(=O)[nH]c1=O)c1cc([N+](=O)[O-])cc([N+](=O)[O-])c1 | 32.3%
71 | O=C(NCc1cccc(Cl)c1)c1cc(=O)[nH]c2ccccc12 | 4.81%
72 | O=C(OC(C(=O)NC1CCCCC1)c1ccccc1)c1ccco1 (stereo not drawn) | 7.23%
73 | O=C1C(=O)N(C2CCS(=O)(=O)C2)C(c2cccc(O)c2)/C1=C(/O)c1ccc(Cl)cc1 (stereo not drawn) | 14.7%
74 | COc1ccc(-c2c3c(nc4sc5c(Cl)nc(C)nc5c24)CCC3)cc1 | 17.7%
75 | CSc1nnc(-c2sccc2-n2cccc2)o1 | 27.4%
76 | Cc1ccc(-c2n[nH]c(=S)n2/N=C/C=C/c2ccccc2[N+](=O)[O-])cc1 | -4.99%
77 | O=C(NCc1cc(C(F)(F)F)ccc1F)C1CCC(=O)N(C2CC2)C1 (stereo not drawn) | 9.91%
78 | CC1CC(C)CN(C(=O)CCC(=O)Nc2nnc(C3CCCCC3)s2)C1 (stereo not drawn) | 14.2%
79 | CCSc1ccc([C@@H]2[C@@H]3C(=O)N(C)C(=O)[C@@H]3[C@]3(C(=O)OC)CCCCN23)cc1.O=C(O)C(F)(F)F | 14.5%
80 | CCOC(=O)c1c(-c2ccccc2)csc1NC(=O)/C(C#N)=C/c1ccc(O)c(OC)c1 | -7.1%
81 | Cc1ccc(Cl)cc1NC(=O)CN1C(=O)NC2(CCCCCC2)C1=O | -15.2%
82 | Cc1ccc(Cn2ncc3c(N4CCN(c5ccccc5C)CC4)ncnc32)cc1 | 10.7%
83 | Cc1ccc(C(=O)Oc2ccc3c(c2)ncn3C)cc1 | -3.22%
84 | COc1ccc(C[C@H]2CN3C(=NC[C@@H]3Cc3ccc(O)cc3)N2CCNC(=O)c2ccc(C)c(Br)c2)cc1 | -74.3%
85 | CCOc1cc(N2CCOCC2)c(OCC)cc1NC(=O)C1CC(=O)N(c2ccc(C)cc2)C1 (stereo not drawn) | -2.64%
86 | CC(C)(C)C(=O)c1sc2nc(-c3cccs3)cc(C(F)(F)F)c2c1N | 10.7%
87 | Cc1cc(Cl)ccc1OCC(=O)NNC(=O)C1CSC2(C)CCC(=O)N12 (stereo not drawn) | -18.5%
